From patent US20090136503A1 come the findings set out here.

The target of the assay is TRAIL-R1 and/or TRAIL-R2 on human cancer cells. Kind of assay: cell-based or functional assay.

B1: Human chimeric CTB003 (mouse-human chimeric antibody) (antibody, human IgG1)
light: DIQMTQSSSSFSVSLGDRVTITCKASEDIYNRLAWYQQKPGNAPRLLISGATSLETGVPSRFSGSGSGKDYTLSITSLQTEDVATYYCQQYWSTPLTFGAGTKLELKRAVAAPSVDIFPPSDEQLKSGTASVVCLLNNFYPREAKVQWKVDNALQSGNSQESVTEQDSKDSTYSLSSTLTLSKADYEKHKVYACEVTHQGLSSPVTKSFNRGEC
heavy: EVHLVESGGGLVRPGGSLKLSCAASGFAFSSYDMSWVRQTPEKRLEWVAYISDGGGITYYPDTMKGRFTISRDNAKNTLSLQMSSLKSEDTAMYYCARHITMVVGPFAYWGQGTLVTVSAASTKGPSVFPLAPCSRSTSGGTAALGCLVKDYFPEPVTVSWNSGALTSGVHTFPAVLQSSGLYSLSSVVTVPSSSLGTQTYICNVNHKPSNTKVDKRV[human IgG1 Fc with A327G V412M (EU numbers) omitted here]
Consider B1, for which the IC50 (ng/ml), killing of Carov 3 cells, ATPLite cell viability came to 22.5 ng/mL; the IC50 (ng/ml), killing of Colo205 cells, ATPLite cell viability is 6.6 ng/mL; the IC50 (ng/ml), killing of Du145 cells, ATPLite cell viability is 39.8 ng/mL; the IC50 (ng/ml), killing of H-2122 cells, ATPLite cell viability worked out at 29.1 ng/mL. In addition, the IC50 (ng/ml), killing of MDA231 cells, ATPLite cell viability stood at 4.2 ng/mL and the IC50 (ng/ml), killing of MIAcap cells, ATPLite cell viability came to 12.5 ng/mL.
